Measurements: US5482964A, “Substituted phenoxyhydroxypropyl amines as central nervous system agents” (Warner-Lambert Company, priority 1994, dated 1996)

Biological target: rat brain IIA Na+ channel (Rattus norvegicus, UniProt P04775)
Experiment: cell-based

Chain of UniProt P04775 (P04775 whole entry): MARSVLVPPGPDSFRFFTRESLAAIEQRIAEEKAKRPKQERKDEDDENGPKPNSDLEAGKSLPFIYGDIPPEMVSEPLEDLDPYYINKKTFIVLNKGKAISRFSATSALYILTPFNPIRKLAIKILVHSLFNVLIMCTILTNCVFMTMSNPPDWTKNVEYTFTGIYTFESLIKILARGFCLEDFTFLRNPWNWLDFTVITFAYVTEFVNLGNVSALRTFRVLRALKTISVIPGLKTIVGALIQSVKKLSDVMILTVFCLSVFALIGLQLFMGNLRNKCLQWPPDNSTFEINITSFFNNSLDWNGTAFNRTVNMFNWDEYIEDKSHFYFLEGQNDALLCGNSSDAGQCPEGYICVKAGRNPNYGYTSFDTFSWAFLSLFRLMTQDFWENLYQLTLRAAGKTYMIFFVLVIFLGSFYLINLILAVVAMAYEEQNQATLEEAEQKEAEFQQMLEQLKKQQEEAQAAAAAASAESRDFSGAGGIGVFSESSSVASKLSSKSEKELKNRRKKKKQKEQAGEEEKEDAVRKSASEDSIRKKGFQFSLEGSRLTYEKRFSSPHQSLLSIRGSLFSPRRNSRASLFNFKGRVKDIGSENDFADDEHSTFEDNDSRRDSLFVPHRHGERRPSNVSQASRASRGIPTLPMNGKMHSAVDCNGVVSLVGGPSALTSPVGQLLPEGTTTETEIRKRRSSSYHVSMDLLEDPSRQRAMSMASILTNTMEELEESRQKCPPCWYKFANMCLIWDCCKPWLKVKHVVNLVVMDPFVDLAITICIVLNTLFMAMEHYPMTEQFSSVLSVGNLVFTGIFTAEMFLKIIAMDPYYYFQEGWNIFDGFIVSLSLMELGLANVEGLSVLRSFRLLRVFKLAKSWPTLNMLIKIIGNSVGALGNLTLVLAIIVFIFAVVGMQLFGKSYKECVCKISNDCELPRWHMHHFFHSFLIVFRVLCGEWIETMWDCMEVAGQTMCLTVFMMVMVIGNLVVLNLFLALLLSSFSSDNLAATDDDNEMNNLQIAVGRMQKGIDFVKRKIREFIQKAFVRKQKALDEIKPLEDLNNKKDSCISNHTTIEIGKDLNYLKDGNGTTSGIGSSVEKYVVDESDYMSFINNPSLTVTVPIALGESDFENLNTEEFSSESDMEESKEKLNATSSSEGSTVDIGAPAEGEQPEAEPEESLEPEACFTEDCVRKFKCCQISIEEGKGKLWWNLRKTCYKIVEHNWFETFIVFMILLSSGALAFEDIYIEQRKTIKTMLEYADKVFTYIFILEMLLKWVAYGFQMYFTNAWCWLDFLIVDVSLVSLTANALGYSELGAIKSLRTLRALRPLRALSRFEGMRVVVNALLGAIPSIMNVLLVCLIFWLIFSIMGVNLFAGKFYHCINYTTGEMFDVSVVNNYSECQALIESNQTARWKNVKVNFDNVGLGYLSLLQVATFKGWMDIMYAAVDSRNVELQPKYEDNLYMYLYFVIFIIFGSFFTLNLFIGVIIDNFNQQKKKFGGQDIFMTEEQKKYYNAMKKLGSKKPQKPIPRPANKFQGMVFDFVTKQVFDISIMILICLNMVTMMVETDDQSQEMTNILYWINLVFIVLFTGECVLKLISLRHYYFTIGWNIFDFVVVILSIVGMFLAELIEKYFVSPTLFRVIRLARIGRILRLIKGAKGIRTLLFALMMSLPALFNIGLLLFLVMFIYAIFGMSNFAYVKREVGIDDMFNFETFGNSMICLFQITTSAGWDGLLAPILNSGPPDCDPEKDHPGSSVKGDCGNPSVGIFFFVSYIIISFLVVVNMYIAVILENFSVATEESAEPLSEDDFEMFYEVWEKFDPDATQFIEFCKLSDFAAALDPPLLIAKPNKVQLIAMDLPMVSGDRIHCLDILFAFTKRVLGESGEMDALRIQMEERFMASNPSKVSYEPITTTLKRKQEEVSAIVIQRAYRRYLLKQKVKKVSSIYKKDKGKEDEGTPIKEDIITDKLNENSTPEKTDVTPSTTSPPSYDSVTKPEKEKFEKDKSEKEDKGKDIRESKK

Row | SMILES | IC50
1 | COc1ccc(CCN(Cc2ccccc2)CC(O)COc2cccc(C)c2)cc1OC (stereo not drawn) [Example 2, 1-{Benzyl-[2-(3,4-dimethoxyphenyl)-ethyl]amino}-3-m-tolyloxy-propan-2-ol] | 8.9 µM
2 | COc1ccc(CCN(Cc2ccccc2)CC(O)COc2cccc(C(F)(F)F)c2)cc1OC (stereo not drawn) [Example 20, 1-{Benzyl-[2-(3,4-dimethoxyphenyl)-ethyl]-amino}-3-(3-trifluoromethylphenoxy)-propan-2-ol] | 11.5 µM
3 | COc1ccc(CCN(C)CC(O)COc2ccc(C3CCCCC3)cc2C)cc1OC (stereo not drawn) [Example 24, 1-(4-Cyclohexyl-2-methylphenoxy)-3-{[2-(3,4-dimethoxyphenyl)-ethyl]-methylamino}-propan-2-ol] | 8.1 µM
